The whole screen tested about 310,000 compounds, of which about 14,000 (4.5%) showed an effect of 50% or more. Effects have a minus sign here. Some of the results follow.
target: human ether-à-go-go-related gene (hERG) potassium channel (human, UniProt Q12809); experiment: primary screen, population patch clamp on CHO cells stably expressing hERG
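Note: peak tail current of the secondary pulse compared with the same well before compound.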

Sequence of human ether-à-go-go-related gene (hERG) potassium channel (Q12809 whole entry, looked up): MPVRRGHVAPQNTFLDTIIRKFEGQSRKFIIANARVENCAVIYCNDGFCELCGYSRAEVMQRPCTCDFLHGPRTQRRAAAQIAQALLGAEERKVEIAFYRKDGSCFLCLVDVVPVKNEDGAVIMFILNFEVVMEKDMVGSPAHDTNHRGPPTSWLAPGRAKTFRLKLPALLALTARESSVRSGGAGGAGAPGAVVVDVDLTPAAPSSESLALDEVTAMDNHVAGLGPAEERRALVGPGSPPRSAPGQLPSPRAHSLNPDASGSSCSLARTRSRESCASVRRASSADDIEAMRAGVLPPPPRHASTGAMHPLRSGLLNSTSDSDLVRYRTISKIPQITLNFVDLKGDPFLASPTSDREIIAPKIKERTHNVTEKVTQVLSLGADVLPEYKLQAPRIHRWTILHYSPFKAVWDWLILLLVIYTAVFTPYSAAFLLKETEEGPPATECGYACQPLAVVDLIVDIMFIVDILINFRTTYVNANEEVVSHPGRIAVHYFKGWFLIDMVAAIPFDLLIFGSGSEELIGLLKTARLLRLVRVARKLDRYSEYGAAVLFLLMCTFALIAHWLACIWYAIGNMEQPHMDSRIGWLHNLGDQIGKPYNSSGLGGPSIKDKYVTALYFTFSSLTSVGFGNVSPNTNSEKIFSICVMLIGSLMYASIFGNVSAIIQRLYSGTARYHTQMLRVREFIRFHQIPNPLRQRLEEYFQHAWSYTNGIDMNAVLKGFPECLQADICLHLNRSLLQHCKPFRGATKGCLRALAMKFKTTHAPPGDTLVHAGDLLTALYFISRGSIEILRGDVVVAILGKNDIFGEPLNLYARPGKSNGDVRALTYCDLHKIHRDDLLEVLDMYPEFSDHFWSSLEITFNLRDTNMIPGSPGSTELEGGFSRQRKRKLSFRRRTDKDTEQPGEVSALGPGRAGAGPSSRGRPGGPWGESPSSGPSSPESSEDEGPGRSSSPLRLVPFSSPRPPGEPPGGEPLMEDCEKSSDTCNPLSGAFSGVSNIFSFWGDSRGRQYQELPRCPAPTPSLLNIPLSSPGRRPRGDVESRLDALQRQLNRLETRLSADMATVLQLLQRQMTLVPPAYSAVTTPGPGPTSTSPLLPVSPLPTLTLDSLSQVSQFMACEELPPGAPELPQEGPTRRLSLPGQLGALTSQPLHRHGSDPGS

SMILES | hERG current change (%, negative = inhibition) at 10uM
CCOC(=O)c1cccc(NC(=O)CSc2nc3ccccc3c(=O)n2CCOC)c1 | -36.1%
COc1ccc(CCNC(=O)CCNC(=O)c2ccc(Cl)cc2)cc1OC | -12.8%
CN(CC(=O)N1CCOCC1)S(=O)(=O)c1ccc2ccccc2c1 | 5.33%
Cc1cccc(Cc2c(C)nc3nc(SCC(=O)NCc4ccco4)nn3c2C)c1 | -40.8%
COC(=O)c1c(NC(NC(=O)C(C)C)C(Cl)(Cl)Cl)sc2c1CCCC2 (stereo not drawn) | -1.67%
O=C(COC(=O)Cc1ccc(Cl)c(Cl)c1)NCc1ccco1 | 12.9%
CN(C)S(=O)(=O)c1ccc(N2CCCC2)c(C(=O)NCC2CCCCC2)c1 | 7.58%
Cc1cc(O)c(N=Cc2cc3c(cc2[N+](=O)[O-])OCO3)cc1C | 22%
O=C(COc1ccc(Cl)cc1)NCCCNC(=O)c1ccccn1 | -16.3%
Cc1ccc(CNc2ncnc3cc(Cl)ccc23)cc1 | 12.4%
CCCOc1ccc(C(=O)NCC2OCCc3ccccc32)cc1OC (stereo not drawn) | -2.76%
COc1ccc2c(c1)cc(C(=O)N[C@@H](Cc1ccccc1)C(=O)O)n2C | 29.4%
Cc1nc(C)c(C(=O)N2CCCC(C(=O)c3cc(F)ccc3F)C2)s1 (stereo not drawn) | -0.709%
O=C(Nc1ccc(N2CCOCC2)c(Cl)c1)c1ccc(F)cc1 | -3.11%
CCc1cc(=O)oc2cc(OC(C)C(=O)NCC(O)c3ccccc3)c(Cl)cc12 (stereo not drawn) | 13%
COc1ccc(C(=O)NC(CC(=O)O)c2cc([N+](=O)[O-])ccc2Cl)c(SC)c1 (stereo not drawn) | 21.7%
Cc1cc(OCc2cc(C(=O)N(C)Cc3nonc3C)no2)cc(C)c1Cl | 11.8%
O=c1oc(-c2cccc(C(F)(F)F)c2)nn1-c1ccc(C(F)(F)F)cn1 | -9.47%
COc1ccc(C2(C)NC(=O)N(CC(=O)N3CCc4ccccc43)C2=O)cc1OC (stereo not drawn) | 4.39%
CCOC(=O)c1sc2nc3n(c(=O)c2c1C)CCCCC3 | -17.2%
C/C(=N\NC(=O)c1c(Br)c(C)nn1C)c1ccc(NC(=O)c2ccoc2C)cc1 | 12.5%
COc1ccc(CCNC(=O)C2CC(c3cc(C(F)(F)F)cc(C(F)(F)F)c3)=NO2)cc1 (stereo not drawn) | 0.762%
CCOC(=O)c1ccc(Nc2nnc(C)c3ccccc23)cc1 | -43.8%
Nc1nnn(CC(=O)N/N=C/c2ccccc2)n1 | 2.64%

Source: publication PMC4336329 (PLoS ONE, 2015)
